# Results from PubChem BioAssay AID485344 (National Center for Advancing Translational Sciences (NCATS), 2010).
# In all, about 340,000 compounds went through this assay and about 6,900 (2%) were called active. Rule as the data show it: active = inhibition above about 30%; inactive = below that, where a call was filed. The entries are a selection whose mix differs from that of the whole data set. The source gives no active or inactive call for entries shown without one.
# Target: D(2) dopamine receptor (Homo sapiens) (UniProt P14416)
# Assay: HTS Assay for Allosteric Antagonists of the Human D2 Dopamine Receptor: Primary Screen for Antagonists; also: 0% is about no effect
# Settings: HEK293 TREx D2 cells, calcium flux, dopamine EC80; at 10 µM; stronger effect = higher value
# Outline: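 Compounds are added to dye-loaded, induced HEK293 T-REx cells coupled to calcium release via D2; after a 3 min kinetic read an EC80 dopamine stimulus is given and fluorescence is recorded for 3 more min.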
# Sequence of UniProt P14416 (P14416 whole entry, looked up): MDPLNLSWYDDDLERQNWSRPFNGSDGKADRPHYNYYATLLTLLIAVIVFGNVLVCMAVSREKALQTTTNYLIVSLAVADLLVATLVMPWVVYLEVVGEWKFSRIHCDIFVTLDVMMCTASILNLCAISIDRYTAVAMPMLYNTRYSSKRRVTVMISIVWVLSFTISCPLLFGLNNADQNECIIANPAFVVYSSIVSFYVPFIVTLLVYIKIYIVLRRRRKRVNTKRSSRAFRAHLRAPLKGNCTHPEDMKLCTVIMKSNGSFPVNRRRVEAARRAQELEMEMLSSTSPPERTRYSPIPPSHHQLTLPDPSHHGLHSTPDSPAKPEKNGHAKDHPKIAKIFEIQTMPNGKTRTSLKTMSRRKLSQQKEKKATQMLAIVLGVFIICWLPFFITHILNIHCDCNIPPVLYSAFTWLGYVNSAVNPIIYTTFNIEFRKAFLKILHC
row,SMILES,inhibition
1,COc1ccc(NC(=O)CN(C)C(=O)CCSc2ccc(F)cc2)cc1,active: 33.7%
2,CC1(C)Oc2ccc(C(=O)NC3CCCC3)cc2N(CC(=O)NC2CCCCC2)C1=O,active: 51.9%
3,CC(Oc1ccccc1)C(=O)N1CCN(Cc2cc(=O)n3nc(-c4ccccc4Cl)sc3n2)CC1 (centres undefined),-1.16%
4,O=C(CCSCc1ccccc1Cl)N1CCN(c2ccc(F)cc2)CC1,-0.102%
5,CCOC(=O)c1c(C)[nH]c(C)c1S(=O)(=O)NCC(=O)N1CCN(c2cc(Cl)ccc2C)CC1,-3.38%
6,CCc1ccc(C(=O)c2cn(CC(=O)Nc3ccc4c(c3)OCCO4)c3ccc(C)cc3c2=O)cc1,17.5%
7,CC(=O)c1ccc(NC(=O)COc2ccccc2-c2nc(-c3ccccc3)no2)cc1,-22.5%
8,COCc1cc(C)nc2sc3c(c12)NC(c1ccccc1C(=O)O)N(c1ccc(OC)cc1)C3=O (centres undefined),8.82%
9,O=c1c2c3c(sc2n(Cc2cc(=O)n4ccccc4n2)c(=O)n1-c1ccccc1)CCC3,2.56%
10,Cc1ccc(C)c(NC(=O)c2nnn(CC(=O)Nc3cccc(C)c3C)c2N)c1,0.741%
11,O=c1cc(CN2CCN(S(=O)(=O)c3ccccc3)CC2)nc2sc(-c3ccccc3Cl)nn12,-11%
12,O=[N+]([O-])c1cc(-c2nc(-c3ccccc3)no2)ccc1NC1CCCC1,13.4%
13,COc1ccc(CN2C(=O)N(c3ccc(C)cc3)C(=O)C2CC(=O)Nc2ccccc2)cc1OC (centres undefined),23.6%
14,Cc1ccc(NC(=O)Cc2nnc(SCC(=O)NC3CCCC3)n2C)cc1C,active: 31.4%
15,COc1ccccc1/C=C\C(=O)NCC(=O)N/N=C/c1ccc(O)cc1O,active: 77.4%
16,Cc1ccc(-n2nc3c(c2NC(=O)c2ccco2)CS(=O)C3)c(C)c1 (centres undefined),active: 33.3%
17,CCCc1cc(C(=O)Nc2c(C)nn(Cc3ccc(Cl)c(Cl)c3)c2C)no1,8.01%
18,COc1ccc(N2CCN(C(=O)c3ccc4c(Cl)c5c(nc4c3)CCCC5)CC2)cc1,19.8%
19,CCOC(=O)c1c(NC(C)=O)c2c3c(sc2n1Cc1nc(-c2cccc(C)c2)oc1C)CCCC3,7.66%
20,CCOc1ccc(-c2cc(C(=O)NCCc3ccc(Cl)cc3)c3ccccc3n2)cc1,21.9%
21,COc1cc(-c2cc(OC)c3c(C)oc(C)c3c(=O)c2)ccc1OC(=O)c1ccccc1F,-2.9%
22,COc1ccccc1C(=O)NC1=NC(c2ccc(Br)cc2)CC(=O)N1 (centres undefined),15.4%
23,COc1ccccc1-c1nc(CNC(=O)Nc2ccccc2)c(C)o1,11.8%
24,OCCCc1nc2n(n1)C(c1cccc(Cl)c1)C=C(c1ccccc1)N2 (centres undefined),6.63%

row,SMILES,inhibition
1,Cc1nnc(NC(=O)C(=O)c2cc(C)n(-c3ccc(C)c(C)c3)c2C)s1,22.3%
2,Cc1cccc(-n2c(=O)c3c(c4cc(C)ccc4n3C)n(CC(=O)Nc3ccc(C)cc3C)c2=O)c1,-0.205%
3,Cc1ccc(C(=O)Nc2ccc3oc(-c4ccncc4)nc3c2)c(Cl)c1,-6.77%
4,C=CCc1cc(OC)ccc1OCCOCCN1CCc2ccccc2C1,active: 84.1%
5,CCc1ccc(-n2c(=O)c3cccnc3n2CC(=O)Nc2ccccc2C(F)(F)F)cc1,0.449%
6,COc1ccc(-c2cn3c(n2)sc2cc(C(=O)Nc4cc(OC)cc(OC)c4)ccc23)cc1,6.76%
7,COc1ccc(-c2ccc(CCC(=O)O)n2CC(=O)Nc2cccc(C(F)(F)F)c2)cc1,12.7%
8,Cc1nn(C)c(C)c1S(=O)(=O)N1CCC(C(=O)NC2CCCCCC2)CC1,active: 32.7%
9,Cc1ccc2nc(NCCc3ccccc3)c3nncn3c2c1,21.2%
10,Cc1nn(-c2ccccc2)c(OC(=O)C(C)(C)C)c1Sc1ccccc1,4.96%
11,CCn1c(=O)cc(OCC(=O)Nc2ccc(C)c(F)c2)c2ccccc21,-24.9%
12,Cc1ccc(Cn2c(SCc3ccc(C(=O)NC4CCCC4)cc3)nc3ccncc32)cc1,6.79%
13,CCCC(C(=O)NC1CCCC1)N(CC1CCCO1)C(=O)CNS(=O)(=O)c1ccc(F)cc1 (centres undefined),active: 31.8%
14,Cc1ccc(-n2c(-c3ccco3)nc3c(cnn3-c3ccccc3C)c2=O)cc1,-8.3%
15,COC(=O)c1cc(NS(=O)(=O)c2cc(Br)cc3c2N(C(C)=O)CC3)cc(C(=O)OC)c1,-8.96%
16,COCCn1c(=N)c(C(=O)NCc2ccco2)cc2c(=O)n3cc(C)ccc3nc21,1.67%
17,Cc1ccc(NC(=O)CCS(=O)(=O)c2cc(Br)cc3c2N(C(=O)C2CC2)CC3)cc1,-1.14%
18,O=C(CSc1oc(-c2ccccc2)nc1S(=O)(=O)c1ccccc1)c1ccccc1,-4.9%
19,COc1ccc(-c2cc(C(=O)Nc3sc4c(c3C#N)CCCC4)no2)cc1OC,-19.5%
20,COc1cccc(NC(=O)c2ccc3nc(Cc4ccccc4)oc3c2)c1,9.05%
21,COC(=O)CCN(C(=O)C12CC3CC(CC(C3)C1)C2)c1ccccn1,active: 33%
22,CC(C)Cn1cc(NC(=O)NCc2ccccc2Cl)c2ccccc2c1=O,-5.63%
23,CC(NC(=O)C1CCN(S(=O)(=O)c2ccc3nc4c(c(C(=O)O)c3c2)CCCC4)CC1)c1ccccc1 (centres undefined),1.56%
24,O=C(NNC1=Nc2cccc3cccc1c23)c1ccc(Br)cc1,active: 83.4%

row,SMILES,inhibition
1,Cc1ccc(Cl)cc1NC(=O)CCS(=O)(=O)c1ccc2c(c1)n(C)c(=O)c(=O)n2C,6.64%
2,Cc1ccc(-n2c3nc(=O)[nH]c(=O)c-3cc3c(C)nn(-c4ccccc4)c32)c(C)c1,5.46%
3,COC(=O)CN1C(=O)C(O)(CC(=O)c2ccc(F)cc2)c2ccccc21 (centres undefined),6.46%
4,CCOC(=O)CSc1nc2ccc(NC(=O)COc3ccccc3C)cc2s1,0.302%
5,O=C(Nc1ccc(Cl)cc1)c1cc2c(-c3ccccc3)nn(-c3ccccc3)c2s1,3.25%
6,Cc1nn(CC(=O)N2CCCCC2)c(=O)c2cc3occc3n12,3.3%
7,COc1ccc(CNC(=O)Cn2nc(C)c3c(C)n(-c4ccccc4)nc3c2=O)cc1OC,-1.69%
8,CCCCc1ccc(NC(=O)C2(C)Cc3ccccc3C(=O)O2)cc1 (centres undefined),-13.1%
9,COc1ccc(N(C)C(=O)c2cc(S(=O)(=O)N3CCc4ccccc43)cn2C)c(OC)c1,11.1%
10,CCc1ccc(C2CC(=O)Oc3c2c(=O)n(C)c2ccccc32)cc1 (centres undefined),-18.3%
11,Cc1cc(C)cc(NC(=O)Cn2cc(C(=O)c3ccccc3)c(=O)c3ccc(C)nc32)c1,-1.82%
12,Cn1c(=O)c2nc(SCC(=O)Nc3ccc(Cl)c(Cl)c3)n(C)c2n(C)c1=O,-0.158%
13,CCC(=O)N1CCc2cc(S(=O)(=O)N3CCCCCC3)ccc21,active: 30.7%
14,CCc1ccc(CN(C(=O)c2cc(=O)c3ccc(C)cc3o2)C2CCS(=O)(=O)C2)cc1 (centres undefined),-9.8%
15,CC(C)Cn1c(=O)c2sccc2n2c(CCCC(=O)NC3CCCCC3)nnc12,-12.2%
16,CCN(CC)CCNC(=O)c1ccc(-n2c(-c3ccccc3)cc3c2CCCC3)cc1,26.1%
17,COc1cccc(CNC(=O)CCCn2nc(C)c3c(C)n(-c4ccc(C)cc4)nc3c2=O)c1OC,-1.44%
18,Cc1c(Cl)c([N+](=O)[O-])nn1CC(=O)NCc1ccco1,active: 42.1%
19,Cc1ccc(NC(=O)c2c(NC(=O)c3ccccc3)sc3c2CCC3)cc1,-8.25%
20,NC(=O)c1nsc(C(=O)N(c2ccccc2)C(C(=O)NCc2ccc(F)cc2)c2ccc(O)cc2)c1N (centres undefined),active: 57%
21,CC1CCc2c(sc(NC(=O)c3cc(-c4ccc(F)cc4)on3)c2C(N)=O)C1 (centres undefined),-4.59%
22,Cc1ccc2sc(N(Cc3cccnc3)C(=O)C3COc4ccccc4O3)nc2c1C (centres undefined),27%
23,CC1=Nc2cc(C(=O)NC(C)C)ccc2Sc2ccc(C)cc21,-6.66%
24,Fc1ccc(Br)cc1C1C=C(c2ccc(Br)cc2)Nc2nnnn21 (centres undefined),-11.1%

row,SMILES,inhibition
1,Cc1ccc(CNC(=O)CCCN2C(=O)COc3ccc(C)cc32)cc1,2.6%
2,Cc1ccc(NC2CCCN(C(=O)c3cccnc3)C2)cc1C (centres undefined),active: 35.6%
3,Cc1cccc(NC(=O)C(=O)NCCc2csc(-c3ccc(C(F)(F)F)cc3)n2)c1C,-7.2%
4,O=C(CC1N=C2c3ccccc3N=C(SCC(=O)Nc3ccccc3F)N2C1=O)NCc1cccs1 (centres undefined),15%
5,COc1ccc(S(=O)(=O)c2nnn(-c3ccc(C)c(Cl)c3)c2C)cc1,-0.899%
6,CCOC(=O)C1(CCc2ccccc2)CCN(Cc2cnc(N(C)C)s2)CC1,active: 50.5%
7,COc1ccc(NC(=O)CC2C(=O)N(c3cccc(OC)c3)C(=O)N2Cc2ccc3c(c2)OCO3)cc1 (centres undefined),2.48%
8,Cc1ccc(-c2cn(-c3ccc(Cl)cc3)c(S(=O)(=O)CC(=O)Nc3ccccc3)n2)cc1,8.81%
9,CCOc1ccc(S(=O)(=O)NCCc2sc3nc(-c4ccc(C)cc4)nn3c2C)cc1,-1.03%
10,Cc1cc(C)cc(-n2ccn(Cc3ccc(F)cc3)c(=O)c2=O)c1,2.07%
11,CCCn1c(CCC(=O)Nc2ccccc2OC)nc2cccnc21,2.93%
12,CC(=O)Nc1ccc(S(=O)(=O)N(C2=NCC(C)S2)c2ccccc2)cc1 (centres undefined),active: 50.7%
13,O=C(CCC(=O)Nc1ccccc1)N/N=C/C=C/c1ccccc1,active: 30.3%
14,CC1CCN(CCCNC(=O)CCc2nnc3n(CCc4ccccc4)c(=O)c4ccccc4n23)CC1,active: 61.1%
15,O=c1oc2ccccc2cc1-c1cn2cc(Cc3ccc(Br)cc3)sc2n1,0.928%
16,O=c1c2sc3ccccc3c2n(Cc2cccc(C(F)(F)F)c2)c(=O)n1Cc1ccc(F)cc1,-3.67%
17,Cc1cccc(C)c1Nc1c(-c2ccc(O)cc2)nc2sccn12,-3.9%
18,CCOc1ccc(S(=O)(=O)Nc2cc(Cl)ccc2OC)c2cccnc12,-15.8%
19,Cc1ccc(/C=C/c2onc(C)c2S(=O)(=O)N2CCC(C(=O)Nc3cc(F)ccc3F)CC2)cc1,-3.17%
20,COCCn1c(=O)[nH]c2cc(C(=O)Nc3cccc(C(C)=O)c3)ccc2c1=O,7.02%
21,Cc1ccc(CN2CCCn3nc(C(=O)NCC(C)c4ccccc4)cc3C2=O)cc1 (centres undefined),-0.402%
22,CCc1nn(CC(=O)NCCCOC)c(=O)c2cc3ccccc3n12,16.4%
